Source: PubChem BioAssay (NCI)
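Compound exposure: 48 hours, 5 concentrations, 96-well plates. GI50: concentration for 50% inhibition of growth. TGI: concentration producing complete growth inhibition.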

The molecules below were run on NCI-H322M lung (assay: inhibition of tumour cell growth, NCI panel, 48 h).
With `NC(N)=Nc1ccc(Oc2cccc(Nc3ccc(Cl)cc3)c2)cn1` the GI50 was 1.66 µM and the TGI was 3.03 µM. `COc1cc2c3c(n(CCCNC4CCCC4)c(=O)c2cc1OC)-c1cc2c(cc1C3=O)OCO2` gave a GI50 of 9.45 µM and a TGI of 24.4 µM. Work on `Cc1cn(-c2cc(NC(=O)c3cncc(C#Cc4cnc5ccc(OCCCS(C)(=O)=O)nn45)c3)cc(C(F)(F)F)c2)cn1` yielded a GI50 of 1.96 µM and a TGI greater than 100 µM. For `CC1OC(O[C@@H]2C(O)C(CO)OC(O[C@H]3COC(O[C@H]4CC[C@]5(C)[C@H]6CC[C@]78OC[C@@]9(CC[C@](C)(C=O)C[C@H]97)[C@H](O)C[C@@]8(C)[C@]6(C)CC[C@H]5C4(C)C)[C@@H](OC4OC(CO)[C@@H](O)[C@@H](O)[C@@H]4O)[C@@H]3O)[C@H]2OC2OC[C@@H](O)[C@@H](O)[C@@H]2O)[C@@H](O)[C@@H](O)[C@H]1O` (stereo not given in full), the GI50 was 1.9 µM and the TGI was 3.6 µM. In the case of `Cn1cc(-c2cc3ncnc(Nc4ccc(NC(=O)Nc5cc(C(C)(C)C)on5)cc4)c3s2)cn1`, the GI50 is reported as 1.94 µM and the TGI is reported as 31.9 µM.
